Results reported in patent publication US20220242944A1.

Tests used:
[1] = biological target: recombinant human PDGF-D (human); assay: Biacore premix competition: CR002 (mouse Fc, 1.6-200 nM) pre-incubated with 10 nM hPDGF-D, injected over human PDGFR beta-hIgG1 captured by anti-human Fc on a CM4 chip; response at 95 s; blocked ligand-receptor pair hPDGF-D / PDGFR beta
[2] = biological target: recombinant human PDGF-D (human); assay: SPR (Biacore T200), footnote to the starred cells of Table 3; unit inferred; CR002-F1332m, starred cell r12c3
[3] = biological target: recombinant human PDGF-D (human); assay: SPR (Biacore T200), antibody captured by anti-human Fc, antigen as analyte, 25 degrees C, pH 7.4, 1:1 model; footnote *: KD cannot be uniquely determined
[4] = biological target: recombinant human PDGF-B (human) (UniProt P01127); assay: SPR (Biacore T200), antibody captured by anti-human Fc, antigen as analyte, 25 degrees C, pH 7.4, 1:1 model
[5] = biological target: recombinant human PDGF-D (human); assay: SPR (Biacore T200), footnote to the starred cells of Table 3; unit inferred; bispecific CPR001GL/xCR002-SG181v14hk, starred cell r14c3

Chain of UniProt P01127 (P01127 82-190 limits assumed): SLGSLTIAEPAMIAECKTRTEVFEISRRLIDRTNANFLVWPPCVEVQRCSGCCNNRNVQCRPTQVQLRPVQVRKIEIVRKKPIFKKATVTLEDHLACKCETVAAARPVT

B1: Anti-PDGF-D antibody (CR002) with mouse Fc (antibody, V domains shown)
VH: QVQLVQSGAEVKKPGASVKVSCKASGYTFTSYDINWVRQATGQGLEWMGWINPNSGNTDYAQKFQGRVTMTRDTSISTAYMELSSLRSEDTAIYYCVRGFGYSYNYDYYYGMDVWGQGTTVTVSS
VL: [omitted - about 100 residues]SFGQGTKLEIK
Q: With B1 as the binder, how does the IC50 (read off the curve) [1] read?
A: 20 nM

B2: CR002-F1332m (antibody, V domains shown)
VH: B1 VH
VL: [omitted - about 100 residues]SFGQGTKLEIK
Q: With B2 as the binder, how does the koff [2] read?
A: < 1e-05 s⁻¹

B3: CPR001GL/xCR002-SG181v14hk (bispecific antibody, V domains shown)
VH 1: EVQLLESGGGLVQPGGSLRLSCAASGFTFSSYAMSWVRQAPGKGLEWVSYISDDGSLKYYADSVKGRFTISRDNSKNTLYLQMNSLRAEDTAVYYCAKHPYWYGGQLDLWGQGTLVTVSS
VL 1: SYELTQPPSVSVSPGQTASITCSGDSLGSYFVHWYQQKPGQSPVLVIYDDSNRPSGIPERFSGSNSGNTATLTISGTQAMDEADYYCSAFTHNSDVFGGGTKLTVL
VH 2: B1 VH
VL 2: [omitted - about 100 residues]SFGQGTKLEIK
Q: Which results are given for B3?
A: Kd [3]: 0.000534 nM; Kd [4]: 0.0211 nM; koff [5]: < 1e-05 s⁻¹
